Reference: PubChem BioAssay AID887 (National Center for Advancing Translational Sciences (NCATS), 2007)
Hit rate of the full screen: of about 74,000 compounds, about 1,100 (1.5%) were called active. Inconclusive results, whose numbers are uncertain, are shown with a selection of clear calls. Calls follow the shape of the dose curve; as a rule, active = well fitted inhibition curve with a large enough effect; inconclusive = small, poorly fitted or top-dose-only effect; inactive = no such curve, though single readings can be large or run the other way. No potency is given beside an inconclusive call; the fits are too rough.

target: Polyunsaturated fatty acid lipoxygenase ALOX15 (Homo sapiens) (UniProt P16050); assay: qHTS Assay for Inhibitors of 15-hLO (15-human lipoxygenase); conditions: purified 15hLO-1, xylenol orange hydroperoxide absorbance; activity change, negative = inhibition: at 57.1 µM (top of the series) unless noted; also: nearly all actives have a fitted effect of over 55% in size
UniProt P16050, sequence (P16050 whole entry, looked up): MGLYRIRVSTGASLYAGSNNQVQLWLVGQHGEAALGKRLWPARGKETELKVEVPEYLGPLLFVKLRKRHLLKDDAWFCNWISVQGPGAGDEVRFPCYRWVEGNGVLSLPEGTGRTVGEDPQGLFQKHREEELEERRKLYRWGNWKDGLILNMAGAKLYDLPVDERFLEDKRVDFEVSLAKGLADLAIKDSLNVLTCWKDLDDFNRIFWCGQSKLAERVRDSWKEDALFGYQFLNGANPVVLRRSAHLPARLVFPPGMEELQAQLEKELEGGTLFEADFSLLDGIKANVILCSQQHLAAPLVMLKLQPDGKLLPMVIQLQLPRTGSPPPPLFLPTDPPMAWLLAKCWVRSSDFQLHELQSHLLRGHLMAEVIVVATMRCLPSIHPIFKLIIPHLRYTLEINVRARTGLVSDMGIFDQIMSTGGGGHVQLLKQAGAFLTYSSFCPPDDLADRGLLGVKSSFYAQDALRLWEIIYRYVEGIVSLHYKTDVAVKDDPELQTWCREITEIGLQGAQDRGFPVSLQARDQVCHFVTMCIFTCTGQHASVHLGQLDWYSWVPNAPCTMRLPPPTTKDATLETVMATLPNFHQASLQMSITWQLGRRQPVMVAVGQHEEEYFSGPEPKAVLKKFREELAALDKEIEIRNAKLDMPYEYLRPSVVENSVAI
Source text: Assay Overview: NIH Molecular Libraries Screening Centers Network [MLSCN] NIH Chemical Genomics Center [NCGC] MLSCN Grant: MH081283-01A1 PI Name: Holman, T.R., University of California, Santa Cruz Human lipoxygenase 15hLO-1 is a member of the closely related lipoxygenase family of enzymes which catalyze the site-specific oxidation of arachidonic acid to various hormone precursor molecules and as such is a candidate for drug development in a variety of disease areas, such as cancer and inflammation. Inhibition of 15hLO-1 activity was screened by utilizing arachidonic acid as a substrate. The extent of hydroperoxide product formation was measured by a secondary chromogenic reaction in which xylenol orange (XO, Sigma-Aldrich, cat. number 39,818-7) reacts with the ferric ions produced from the reaction between the hydroperoxide and ferrous ions. The Fe(III)-XO complex is characterized with red-shifted absorbance at 560 nm. A purified preparation of human 15hLO-1 was supplied by Professor Ted Holman, University of California, Santa Cruz.
Assay Protocol: Buffer: 25 mM Hepes pH 7.5, 0.01% Triton X-100. Reagents/Controls: Buffer in columns 3 and 4 as negative control (no enzyme). Substrate solution: 50 uM arachidonic acid (Sigma-Aldrich, St. Louis, MO) final concentration dispensed throughout the plate. Enzyme: 40 nM 15hLO-1 final concentration in columns 1, 2, 5-48. Column 1 is neutral (100% activity). Column 2 contained pin-transferred titration of NDGA (nordihidroguaiaretic acid, Sigma-Aldrich, N 5023, top concentration 10 mM in DMSO, then 1:2 dilution in duplicate). (Dilution factor: 23 nL into 4 uL.) Chromogenic detection reagent (divalent iron/xylenol orange, Fe-XO): 200 uM xylenol orange plus 300 uM ferrous ammonium sulfate prepared freshly in 50 mM sulfuric acid. Assay Steps: Three uL of enzyme were dispensed to 1536-well Greiner black clear bottom plates. Compounds and controls (23 nL) were transferred via Kalypsys PinTool. The plates were incubated for 15 min at room temperature, and then 1 uL of substrate solution was added to start the reaction. After room temperature incubation for 6 minutes, 4 uL of Fe-XO solution was added to each well followed by a short spin (1000 rpm, 15 sec) and the plates were then incubated for 30 min. The absorbance at 405 and 573 nm were measured using ViewLux (Perkin-Elmer) High-throughput CCD imager and absorbance protocol settings. The 573-to-405 absorbance ratio was used to compute reaction progress.
% is scaled to controls: 0 for no effect and ±100 for the full control effect; potency is read from the fitted curve at half-maximal effect; tags tell the direction and shape of the fitted curve.

SMILES | activity change, negative = inhibition | Potency
CCCn1c(-c2ccccc2)nc2c(=O)n(C)c(=O)[nH]c21 | inactive: 1.94% | 
Cn1c(/C(C#N)=C/C2CC=CCC2)nc2ccccc21 (configuration not stated) | inactive: -0.243% | 
Cc1ccc(CNc2ccc(O)cc2)cc1 |  | inconclusive [inhibitor, single point]
COC(=O)c1ccccc1NC(=O)Nc1cccs1 |  | inconclusive [inhibitor, partial curve]
Cc1[nH]c(=O)[nH]c(=O)c1S(=O)(=O)N1CCCC(C(=O)N2CCN(c3ccccc3Cl)CC2)C1 (configuration not stated) |  | inconclusive [inhibitor, full curve, poor fit]
NC1=CC(=O)c2cccc3cccc1c23 |  | active: 5.01 µM
N[C@](CC1c2ccccc2Oc2ccccc21)(C(=O)O)[C@@H]1C[C@@H]1C(=O)O | inactive: -24.5% [at 25.6 µM] | 
Cc1ccc(O)c(C2=NOC(O)(C(F)(F)C(F)F)C2)c1 (configuration not stated) |  | inconclusive [inhibitor, partial curve]
S=C([S-])NCCNC(=S)[S-].[Zn+2] |  | active: 12.6 µM
COc1ccc(N2CCn3c2nc2c3c(=O)n(CCCc3ccccc3)c(=O)n2C)c(OC)c1 | inactive: -9.54% | 
CCCc1nc2c(C)cc(-c3nc4ccccc4n3C)cc2n1Cc1ccc(-c2ccccc2C(=O)O)cc1 | inactive: 3% | 
COc1ccc(CNc2nc3ccccc3n2CCN2CCCCC2)c(OC)c1 | inactive: -0.323% | 
COC(=O)c1ccc2c(c1)N(C)CCS2 |  | inconclusive [inhibitor, single point]
CCOC(=O)c1c(C)oc2c1c(C(c1ccncc1)N1CCOCC1)c(O)c1ccccc12 (configuration not stated) |  | inconclusive [inhibitor, partial curve]
O=S(=O)(Nn1cnnc1)c1ccccc1Cl | inactive: 4.55% | 
COC(=O)C1=C(C)N=c2s/c(=C/c3ccoc3)c(=O)n2C1c1ccccc1 (configuration not stated) |  | inconclusive [inhibitor, partial curve]
Nc1ccccc1N |  | inconclusive [inhibitor, single point]
CO[C@@H](C(C)C)[C@@H](C)[C@@H]1OC(=O)C[C@@H]1O | inactive: 26.4% [at 11.4 µM] | 
Cc1nn(Cc2ccc(Cl)c(Cl)c2)c(C)c1NC(=O)c1cc(-c2ccco2)on1 |  | inconclusive [inhibitor, partial curve]

SMILES | activity change, negative = inhibition | Potency
O=C(C1CCN(S(=O)(=O)c2cccc3nsnc23)CC1)N1CC=C(c2ccccc2)CC1 |  | inconclusive [inhibitor, single point]
COCc1nc2ccccc2n1Cc1ccccc1 | inactive: 1.88% | 
CC(C)[C@](N)(C(=O)O)c1ccccc1 | inactive: -4.03% [at 11.4 µM] | 
Cc1nc2cc(NC(=O)N3c4ccccc4CC3C)ccc2o1 (configuration not stated) | inactive: 13.7% | 
N=C1[C@@H](O)[C@]2(I)c3ccccc3N3C(=N)[C@H](O)[C@@H]4c5ccccc5N1[C@@H]4[C@@H]32 |  | inconclusive [inhibitor, single point]
COc1ccc(S(=O)(=O)N(C)CC(=O)Nc2ccccc2SC)cc1 | inactive: 2.81% | 
CC1CN(c2nc3ccccc3nc2C(C#N)C(=O)NCc2ccc3c(c2)OCO3)CC(C)O1 (configuration not stated) | inactive: -5.7% | 
O=C(c1ccncc1)N1CCC2(CCCN(c3cccc(-c4ccccc4)c3)C2)CC1 |  | inconclusive [inhibitor, single point]
CCOc1cc(CNc2ncc(-c3ccc(OC)cc3)n2C)ccc1O |  | inconclusive [inhibitor, partial curve]
COc1cc(CNc2cccc(F)c2)cc(Br)c1O |  | inconclusive [inhibitor, partial curve]
C[N+]1(NCC[N@@+]2(C)CCc3ccccc3C2)CCCCC1 | inactive: 5.43% [at 11.4 µM] | 
COc1cccc(CSCC(=O)O)c1 | inactive: -0.44% [at 11.4 µM] | 
COc1ccc(CNc2ccnc(-c3cccnc3)n2)c(OC)c1 |  | inconclusive [inhibitor, single point]
Cn1c(=O)c(-c2cc(F)cc(F)c2)nc2cnc(Nc3ccccc3)nc21 | inactive: -1.94% | 
O=C(c1c[nH]c2ccccc12)C(O)C(c1ccccc1)N1CCOCC1 (configuration not stated) | inactive: -6.17% | 
CCOc1ccc(C2C=C(c3ccc(C)cc3)Nc3nnnn32)cc1 (configuration not stated) | inactive: -14.2% | 
Cc1ccc2nc(-c3ccc(NC(=O)CN4CCN(C(=O)c5ccco5)CC4)cc3)sc2c1 |  | inconclusive [inhibitor, single point]
O=C(CN1C(=O)c2ccccc2S1(=O)=O)Nc1ccccc1C(=O)NCc1ccco1 | inactive: 9.06% | 
